In the supplement of paper PMC3334620:
Over roughly 33,000 sequences, “E-score (-0.5 to 0.5)” has its median near -0.035; the highest 2% begin near 0.34. The list shows a part of the results.

biological target: T1, Mot3 (UniProt P54785); assay: PBM E-score (8-mer binding enrichment) (E-score (-0.5 to 0.5)); higher = stronger / more preferred TF binding; most listed sequences are background and not binding sites; settings: protein concentration: 200 nM; construct: GST-full length
T1 sequence: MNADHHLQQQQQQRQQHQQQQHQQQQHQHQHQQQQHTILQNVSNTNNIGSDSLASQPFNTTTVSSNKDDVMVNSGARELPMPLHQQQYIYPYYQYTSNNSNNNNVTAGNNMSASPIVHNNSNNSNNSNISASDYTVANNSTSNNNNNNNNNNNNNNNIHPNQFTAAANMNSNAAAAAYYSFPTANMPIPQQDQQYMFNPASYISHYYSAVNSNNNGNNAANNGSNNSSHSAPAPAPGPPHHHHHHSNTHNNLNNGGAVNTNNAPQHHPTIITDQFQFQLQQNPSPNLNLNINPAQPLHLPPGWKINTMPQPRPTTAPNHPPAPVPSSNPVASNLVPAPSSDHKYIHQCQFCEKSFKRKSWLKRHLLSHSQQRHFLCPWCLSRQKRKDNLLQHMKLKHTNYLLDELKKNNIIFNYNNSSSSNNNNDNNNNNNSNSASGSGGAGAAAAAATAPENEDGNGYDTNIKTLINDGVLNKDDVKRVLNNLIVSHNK
Outline: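 The E-score, a modified Wilcoxon-Mann-Whitney statistic, was computed by the Universal PBM Analysis Suite for every ungapped eight-base word pooled with its reverse complement. Scans behind it were normalised with masliner after bound GST-tagged yeast transcription factors were detected with fluorescent anti-GST. The proteins, at about 100-200 nM, had been applied to universal all-10-mer Agilent arrays made double-stranded by primer extension.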

Sequence	PBM E-score
GAGACCCA	-0.284
AACTAAGC	0.189
GAAAATAA	0.175
CATTGCTC	-0.101
CAGTCTTA	-0.0648
GGCCCGCC	-0.234
GTTCATTA	0.126
GTTTAGAA	0.168
AACTCTGC	-0.108
GGAAACTA	-0.0618
ATTTCGCG	0.0566
CTCCGAGA	-0.144
TACCTCTA	0.0212
CAGGGAGA	-0.25
ACGACGGA	0.0268
AAGTTGGG	-0.11
TCATGCGA	-0.0918
ATTTCAAC	0.168
CGAGGCAG	-0.0696
CGTGGTCC	-0.13
CCTATGAC	-0.00435
CGATGTCC	-0.154

Sequence	PBM E-score
ATCAGTGA	-0.0721
GGAGTTAA	-0.03
AAAATGCT	0.0487
AAGTCGAG	-0.0916
CCACAGGG	-0.161
CTGGCGAA	-0.197
AGTTGAGC	-0.0105
AGAAGGTA	0.347
GCTCCGGA	-0.11
AGCAACAG	0.0442
CGCGTCTA	0.0388
TGCTTACA	0.214
ACGTATTG	0.131
GCACGGAC	0.0668
ACGGTCTA	-0.101
AGGTTCTA	0.00687
ATCCACGA	-0.047
CAAGCAGC	-0.0458
GAGGGGGC	-0.248
ATACGCCC	-0.163
CATTACTA	0.246
ATGTTCAG	0.178

Sequence	PBM E-score
ATAAGAAG	-0.0771
ACAAGAGT	0.173
CACTGTAA	0.167
CTGACACA	0.0882
AATAAAGC	-0.0871
CAGTTCGC	-0.109
GAAATCAA	-0.0948
CGATAGAA	-0.0792
CTTGGCGC	-0.126
CATATTGG	-0.0646
ACGGATCG	-0.124
ATGAGACG	-0.0631
TGAGCCCA	-0.223
ACAGAGGA	0.0882
AGACCCCA	-0.253
ACCGGAGG	-0.0907
GATCAGCA	-0.194
TAAATCAA	0.0876
AGACCCGC	-0.00762
AGGATCGG	-0.0635
AGGAATAT	-0.00249
GGCGCCCC	-0.0368

Sequence	PBM E-score
CGAGACGA	-0.287
ATTAGGCA	0.472
CCTATCAC	0.145
GCTTGCAC	-0.222
AAACCGGC	-0.0772
AAATCACT	0.113
ACGCTCCT	0.0454
CTGTCTCC	-0.116
TACAGGTA	0.393
ATGCCATG	0.0256
CATCGCGG	-0.202
AGCGCATC	-0.138
TGCTGAAA	0.0454
AACCCTCA	-0.125
GCGCTAGC	-0.149
AGCGGCCG	-0.264
CGGCTTCC	-0.253
GGCCGACA	-0.252
GGACAGCC	-0.363
CGCAGCCC	-0.265
GCAAGACC	-0.0597
CCTTCGGC	-0.128

Sequence	PBM E-score
ATCTGGAG	-0.107
TAGGTTGA	0.0234
CCGTGTGC	0.037
ATCAATCA	0.0514
CGGCTGAA	-0.0999
CACATTGG	-0.0902
AGTGCACT	-0.158
GGGAGAAA	-0.0567
GTGTATTA	0.335
CAGGTTGC	0.209
GGCCACCC	-0.204
CCGGCTAG	-0.261
GACCTATA	0.0644
AGGCTGCA	-0.0277
ACTGAACT	-0.137
ATCTGGAA	-0.152
CCGTACAC	0.101
CAAGGGGG	-0.152
AAGTGTGA	-0.0731
GCCACGCA	-0.115
TCCTTACA	0.232
